# Measured values published in the supplement of paper PMC8728848.
# Some of the results follow.
# How the values were obtained:
# Experiment in all cases: glycan array binding signal (z-score within array); higher = stronger binding
# Conditions in all cases: glycan notation: IUPAC condensed, linker removed
# [1] = biological target: Fuc(a1-2)[Gal(a1-4)]Gal(b1-4)GlcNAc
# In short: (§1)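 Columns mapping to the same glycan were averaged after glycan names were converted to IUPAC-condensed notation. The data come from 3228 arrays in the Consortium for Functional Glycomics database, limited to those with an available protein sequence. Binding is reported as a within-array Z-score averaged across arrays of one protein sequence and across linkers.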
# [2] = biological target: Fuc(a1-2)[GalNAc(a1-3)]Gal
# In short: as §1
# [3] = biological target: Fuc(a1-2)[GalNAc(a1-3)]Gal(b1-3)GalNAc(a1-3)[Fuc(a1-2)]Gal(b1-4)GlcNAc
# In short: as §1
# [4] = biological target: Fuc(a1-2)[GalNAc(a1-3)]Gal(b1-3)GalNAc(b1-3)Gal(a1-4)Gal(b1-4)Glc
# In short: as §1
# [5] = biological target: Fuc(a1-2)[GalNAc(a1-3)]Gal(b1-3)GlcNAc
# In short: as §1
# [6] = biological target: Fuc(a1-2)[GalNAc(a1-3)]Gal(b1-3)GlcNAc(b1-2)Man(a1-3)[Fuc(a1-2)[GalNAc(a1-3)]Gal(b1-3)GlcNAc(b1-2)Man(a1-6)]Man(b1-4)GlcNAc(b1-4)GlcNAc
# In short: as §1
# [7] = biological target: Fuc(a1-2)[GalNAc(a1-3)]Gal(b1-3)GlcNAc(b1-2)Man(a1-3)[Fuc(a1-2)[GalNAc(a1-3)]Gal(b1-3)GlcNAc(b1-2)Man(a1-6)]Man(b1-4)GlcNAc(b1-4)[Fuc(a1-6)]GlcNAc
# In short: as §1
# [8] = biological target: Fuc(a1-2)[GalNAc(a1-3)]Gal(b1-3)GlcNAc(b1-3)GalNAc
# In short: as §1
# [9] = biological target: Fuc(a1-2)[GalNAc(a1-3)]Gal(b1-3)GlcNAc(b1-6)GalNAc
# In short: as §1
# [10] = biological target: Fuc(a1-2)[GalNAc(a1-3)]Gal(b1-4)Glc
# In short: as §1
# [11] = biological target: Fuc(a1-2)[GalNAc(a1-3)]Gal(b1-4)GlcNAc
# In short: as §1
# [12] = biological target: Fuc(a1-2)[GalNAc(a1-3)]Gal(b1-4)GlcNAc(b1-2)Man
# In short: as §1
# [13] = biological target: Fuc(a1-2)[GalNAc(a1-3)]Gal(b1-4)GlcNAc(b1-2)Man(a1-3)[Fuc(a1-2)[GalNAc(a1-3)]Gal(b1-4)GlcNAc(b1-2)Man(a1-6)]Man(b1-4)GlcNAc(b1-4)GlcNAc
# In short: as §1
# [14] = biological target: Fuc(a1-2)[GalNAc(a1-3)]Gal(b1-4)GlcNAc(b1-2)Man(a1-3)[Fuc(a1-2)[GalNAc(a1-3)]Gal(b1-4)GlcNAc(b1-2)Man(a1-6)]Man(b1-4)GlcNAc(b1-4)[Fuc(a1-6)]GlcNAc
# In short: as §1
# [15] = biological target: Fuc(a1-2)[GalNAc(a1-3)]Gal(b1-4)GlcNAc(b1-3)Gal(b1-4)GlcNAc
# In short: as §1
# [16] = biological target: Fuc(a1-2)[GalNAc(a1-3)]Gal(b1-4)GlcNAc(b1-3)Gal(b1-4)GlcNAc(b1-3)Gal(b1-4)GlcNAc
# In short: as §1
# [17] = biological target: Fuc(a1-2)[GalNAc(a1-3)]Gal(b1-4)GlcNAc(b1-3)GalNAc
# In short: as §1
# [18] = biological target: Fuc(a1-2)[GalNAc(a1-3)]Gal(b1-4)GlcNAc(b1-3)[Fuc(a1-2)[GalNAc(a1-3)]Gal(b1-4)GlcNAc(b1-6)]GalNAc
# In short: as §1
# [19] = biological target: Fuc(a1-2)[GalNAc(a1-3)]Gal(b1-4)GlcNAc(b1-6)GalNAc
# In short: as §1
# [20] = biological target: Fuc(a1-2)[GalNAc(a1-3)]Gal(b1-4)[Fuc(a1-3)]GlcNAc
# In short: as §1
# [21] = biological target: Fuc(a1-2)[GalNAc(a1-3)]Gal(b1-4)[Fuc(a1-3)]GlcNAc(b1-3)GalNAc
# In short: as §1
# [22] = biological target: Fuc(a1-2)[GalNAc(a1-4)]Gal(b1-4)GlcNAc
# In short: as §1
# [23] = biological target: Fuc(a1-2)[GalNAc(b1-3)]Gal
# In short: as §1
# Fuc(a1-3)GlcNAc = biological target: Fuc(a1-3)GlcNAc
# In short: as §1
# [24] = biological target: Fuc(a1-3)[Gal(b1-4)]Glc6S
# In short: as §1
# [25] = biological target: Fuc(a1-3)[Gal(b1-4)]GlcNAc
# In short: as §1
# [26] = biological target: Fuc(a1-3)[Gal(b1-4)]GlcNAc(b1-2)Man
# In short: as §1
# [27] = biological target: Fuc(a1-3)[Gal(b1-4)]GlcNAc(b1-2)Man(a1-3)[Fuc(a1-3)[Gal(b1-4)]GlcNAc(b1-2)Man(a1-6)]Man(b1-4)GlcNAc(b1-4)GlcNAc
# In short: as §1
# [28] = biological target: Fuc(a1-3)[Gal(b1-4)]GlcNAc(b1-2)Man(a1-3)[Fuc(a1-3)[Gal(b1-4)]GlcNAc(b1-2)Man(a1-6)]Man(b1-4)GlcNAc(b1-4)[Fuc(a1-6)]GlcNAc
# In short: as §1
# [29] = biological target: Fuc(a1-3)[Gal(b1-4)]GlcNAc(b1-3)Gal(b1-3)[Fuc(a1-4)]GlcNAc
# In short: as §1
# [30] = biological target: Fuc(a1-3)[Gal(b1-4)]GlcNAc(b1-3)Gal(b1-4)[Fuc(a1-3)]GlcNAc
# In short: as §1
# [31] = biological target: Fuc(a1-3)[Gal(b1-4)]GlcNAc(b1-3)Gal(b1-4)[Fuc(a1-3)]GlcNAc(b1-3)Gal(b1-4)[Fuc(a1-3)]GlcNAc
# In short: as §1
# [32] = biological target: Fuc(a1-3)[Gal(b1-4)]GlcNAc(b1-3)GalNAc
# In short: as §1
# [33] = biological target: Fuc(a1-3)[Gal(b1-4)]GlcNAc(b1-6)GalNAc
# In short: as §1
# [34] = biological target: Fuc(a1-3)[Gal(b1-4)]GlcNAc(b1-6)[Gal(b1-3)GlcNAc(b1-3)]Gal(b1-4)Glc
# In short: as §1
# [35] = biological target: Fuc(a1-3)[Gal(b1-4)]GlcNAc6S
# In short: as §1
# [36] = biological target: Fuc(a1-3)[Gal3S(b1-4)]Glc
# In short: as §1
# [37] = biological target: Fuc(a1-3)[Gal3S(b1-4)]GlcNAc
# In short: as §1
binder,measurement,setting,value
Epa13 (Candida glabrata) (protein) MGSSHHHHHHSSGLVPRGSHMASDSSENGYAHGCSPSIRAKLKPGLSMEIYSYALRPTDDHCWDSAYLDPMFPRTGYLTHKLLGKAEGIIGPLNFLAKNPACIPAVSTLPLAFHFPKPFTITNFTMLLYGYLSPKKTGKYTFKLLADDLLLMNFGADNAFDCCSHDATKDNIGEYVAYSVWPGVNKNVTVYLESGIYYPLRLFFNNRDAIAQLDFAYYFNDSPIRQTDFSGMFFSIPDSVKCPANI,glycan array binding signal (z-score),[1],9.27
same,glycan array binding signal (z-score),[2],-0.409
same,glycan array binding signal (z-score),[3],-0.396
same,glycan array binding signal (z-score),[4],-0.231
same,glycan array binding signal (z-score),[5],-0.092
same,glycan array binding signal (z-score),[6],-0.555
same,glycan array binding signal (z-score),[7],-0.076
same,glycan array binding signal (z-score),[8],0.344
same,glycan array binding signal (z-score),[9],-0.155
same,glycan array binding signal (z-score),[10],-0.307
same,glycan array binding signal (z-score),[11],-0.539
same,glycan array binding signal (z-score),[12],-0.081
same,glycan array binding signal (z-score),[13],-0.51
same,glycan array binding signal (z-score),[14],-0.043
same,glycan array binding signal (z-score),[15],-0.383
same,glycan array binding signal (z-score),[16],-0.206
same,glycan array binding signal (z-score),[17],-0.377
same,glycan array binding signal (z-score),[18],0.053
same,glycan array binding signal (z-score),[19],-0.44
same,glycan array binding signal (z-score),[20],0.257
same,glycan array binding signal (z-score),[21],1.95
same,glycan array binding signal (z-score),[22],-0.453
same,glycan array binding signal (z-score),[23],-0.312
same,glycan array binding signal (z-score),Fuc(a1-3)GlcNAc,-0.4
same,glycan array binding signal (z-score),[24],-0.36
same,glycan array binding signal (z-score),[25],-0.454
same,glycan array binding signal (z-score),[26],-0.124
same,glycan array binding signal (z-score),[27],-0.041
same,glycan array binding signal (z-score),[28],0.905
same,glycan array binding signal (z-score),[29],-0.279
same,glycan array binding signal (z-score),[30],-0.164
same,glycan array binding signal (z-score),[31],-0.429
same,glycan array binding signal (z-score),[32],0.137
same,glycan array binding signal (z-score),[33],0.527
same,glycan array binding signal (z-score),[34],-0.385
same,glycan array binding signal (z-score),[35],0.147
same,glycan array binding signal (z-score),[36],0.372
same,glycan array binding signal (z-score),[37],-0.351
